Measurements reported in US20120282279A1 (COVX TECHNOLOGIES IRELAND, published 2012).

Key:
[1] = target: FGF21 cell surface receptor composed of FGFR1c and β-Klotho (on the cells of the bioactivity assays) (UniProt P16092 22-822; Q99N32 1-1043, limits assumed); test: cell-based or functional assay
[2] = target: T1, FGF-R/β-Klotho on HEK-293 cells (UniProt Q86Z14 1-1044); test: Indirect FGF-R/β-Klotho HEK-293 cell binding ELISA; liquid formulation D after 2 weeks at 40° C.
T1 construct: whole, on cells

[3] = target: T1, FGF-R/β-Klotho on HEK-293 cells; test: Indirect FGF-R/β-Klotho HEK-293 cell binding ELISA; liquid formulation B after 2 weeks at 25° C.
T1 sequence (Q86Z14 whole entry): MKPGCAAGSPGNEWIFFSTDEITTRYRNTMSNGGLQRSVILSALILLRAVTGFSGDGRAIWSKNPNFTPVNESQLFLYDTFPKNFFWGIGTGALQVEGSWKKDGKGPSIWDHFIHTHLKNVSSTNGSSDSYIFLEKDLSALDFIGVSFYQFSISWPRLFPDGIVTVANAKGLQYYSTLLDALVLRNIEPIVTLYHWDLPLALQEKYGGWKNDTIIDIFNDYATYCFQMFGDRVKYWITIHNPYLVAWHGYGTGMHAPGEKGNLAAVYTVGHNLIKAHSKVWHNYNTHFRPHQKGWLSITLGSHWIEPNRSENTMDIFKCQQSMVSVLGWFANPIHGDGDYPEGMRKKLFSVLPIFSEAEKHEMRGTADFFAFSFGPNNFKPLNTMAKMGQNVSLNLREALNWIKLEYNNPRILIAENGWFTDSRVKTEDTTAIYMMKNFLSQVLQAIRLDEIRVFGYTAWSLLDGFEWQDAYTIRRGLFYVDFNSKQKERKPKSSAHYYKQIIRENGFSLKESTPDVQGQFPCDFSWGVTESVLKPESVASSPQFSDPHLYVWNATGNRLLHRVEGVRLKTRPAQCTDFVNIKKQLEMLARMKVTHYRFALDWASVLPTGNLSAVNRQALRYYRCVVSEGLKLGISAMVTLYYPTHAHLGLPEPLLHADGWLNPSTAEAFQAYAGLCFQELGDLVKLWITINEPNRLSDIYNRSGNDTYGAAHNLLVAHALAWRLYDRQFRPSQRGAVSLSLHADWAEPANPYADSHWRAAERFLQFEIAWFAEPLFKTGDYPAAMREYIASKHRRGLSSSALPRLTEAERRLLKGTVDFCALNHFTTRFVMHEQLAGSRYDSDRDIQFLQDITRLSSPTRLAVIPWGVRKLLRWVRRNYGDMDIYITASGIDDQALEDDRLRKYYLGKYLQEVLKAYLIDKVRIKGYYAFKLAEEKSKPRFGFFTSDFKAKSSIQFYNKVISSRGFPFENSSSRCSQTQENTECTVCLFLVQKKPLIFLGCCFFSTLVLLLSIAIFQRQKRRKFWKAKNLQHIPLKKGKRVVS

[4] = target: T1, FGF-R/β-Klotho on HEK-293 cells; test: Indirect FGF-R/β-Klotho HEK-293 cell binding ELISA; liquid formulation F after 2 weeks at 40° C.
[5] = target: T1, FGF-R/β-Klotho on HEK-293 cells; test: Indirect FGF-R/β-Klotho HEK-293 cell binding ELISA; liquid formulation F after 2 weeks at 25° C.
[6] = target: T1, FGF-R/β-Klotho on HEK-293 cells; test: Indirect FGF-R/β-Klotho HEK-293 cell binding ELISA; liquid formulation B after 2 weeks at 40° C.
[7] = target: T1, FGF-R/β-Klotho on HEK-293 cells; test: Indirect FGF-R/β-Klotho HEK-293 cell binding ELISA; lyophilized formulation A after 2 weeks at 5° C.
[8] = target: T1, FGF-R/β-Klotho on HEK-293 cells; test: Indirect FGF-R/β-Klotho HEK-293 cell binding ELISA; liquid formulation D after 2 weeks at 25° C.

Chain of UniProt P16092 (P16092 22-822 limits assumed, chain 1 of 2): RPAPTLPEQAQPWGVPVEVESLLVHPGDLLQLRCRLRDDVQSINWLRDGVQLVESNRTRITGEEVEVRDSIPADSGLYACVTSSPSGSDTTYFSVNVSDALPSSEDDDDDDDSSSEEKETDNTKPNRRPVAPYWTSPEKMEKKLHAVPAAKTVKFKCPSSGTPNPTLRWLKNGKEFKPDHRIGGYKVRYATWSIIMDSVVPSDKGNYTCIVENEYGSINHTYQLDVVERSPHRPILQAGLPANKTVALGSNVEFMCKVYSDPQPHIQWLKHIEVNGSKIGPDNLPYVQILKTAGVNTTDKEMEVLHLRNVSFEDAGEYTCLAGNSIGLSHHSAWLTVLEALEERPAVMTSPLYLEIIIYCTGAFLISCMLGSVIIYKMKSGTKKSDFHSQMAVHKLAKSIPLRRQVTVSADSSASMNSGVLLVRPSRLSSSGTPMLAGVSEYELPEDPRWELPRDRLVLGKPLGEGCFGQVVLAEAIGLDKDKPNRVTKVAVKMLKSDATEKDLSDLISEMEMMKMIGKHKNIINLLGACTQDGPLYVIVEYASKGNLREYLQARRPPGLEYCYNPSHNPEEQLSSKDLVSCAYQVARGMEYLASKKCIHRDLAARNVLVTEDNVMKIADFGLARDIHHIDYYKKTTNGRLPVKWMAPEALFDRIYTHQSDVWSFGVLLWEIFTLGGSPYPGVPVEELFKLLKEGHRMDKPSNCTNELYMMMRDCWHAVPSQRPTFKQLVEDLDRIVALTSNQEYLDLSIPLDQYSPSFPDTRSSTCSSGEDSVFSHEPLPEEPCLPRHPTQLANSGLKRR
Chain of UniProt P16092 (Q99N32 whole entry, chain 2 of 2, further chain): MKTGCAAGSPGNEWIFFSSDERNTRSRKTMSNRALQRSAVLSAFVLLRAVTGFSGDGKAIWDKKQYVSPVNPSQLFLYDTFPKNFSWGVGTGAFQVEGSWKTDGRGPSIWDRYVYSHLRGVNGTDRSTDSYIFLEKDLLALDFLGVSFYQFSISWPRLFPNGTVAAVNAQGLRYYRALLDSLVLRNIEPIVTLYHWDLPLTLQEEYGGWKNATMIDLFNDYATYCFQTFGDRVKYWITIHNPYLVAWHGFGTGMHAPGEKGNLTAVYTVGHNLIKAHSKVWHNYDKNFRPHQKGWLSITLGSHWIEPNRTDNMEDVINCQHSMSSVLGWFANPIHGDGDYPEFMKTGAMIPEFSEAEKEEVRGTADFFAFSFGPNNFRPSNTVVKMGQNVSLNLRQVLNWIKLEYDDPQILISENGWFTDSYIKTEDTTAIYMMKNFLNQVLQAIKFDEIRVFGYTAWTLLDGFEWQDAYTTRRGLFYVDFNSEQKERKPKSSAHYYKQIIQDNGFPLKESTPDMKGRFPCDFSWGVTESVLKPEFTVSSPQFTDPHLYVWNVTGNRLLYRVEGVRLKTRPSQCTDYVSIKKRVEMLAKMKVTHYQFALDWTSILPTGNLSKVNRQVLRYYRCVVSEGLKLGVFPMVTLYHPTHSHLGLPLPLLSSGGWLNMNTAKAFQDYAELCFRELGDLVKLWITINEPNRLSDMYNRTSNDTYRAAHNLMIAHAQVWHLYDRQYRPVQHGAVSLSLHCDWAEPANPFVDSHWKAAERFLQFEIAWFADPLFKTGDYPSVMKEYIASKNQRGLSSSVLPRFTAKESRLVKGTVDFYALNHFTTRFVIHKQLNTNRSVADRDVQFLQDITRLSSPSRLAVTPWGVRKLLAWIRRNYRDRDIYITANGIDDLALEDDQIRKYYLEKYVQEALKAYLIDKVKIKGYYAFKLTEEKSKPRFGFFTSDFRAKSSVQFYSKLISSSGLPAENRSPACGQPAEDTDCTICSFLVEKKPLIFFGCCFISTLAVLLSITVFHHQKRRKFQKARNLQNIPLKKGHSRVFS

B1: Ab-L1-FGF21ΔH-D79C (other)
heavy: EVQLVESGGGLVQPGGSLRLSCAASGFTFSNYWMSWVRQSPEKGLEWVSEIRLRSDNYATHYAESVKGRFTISRDNSKNTLYLQMNSLRAEDTGIYYCKTYFYSFSYWGQGTLVTVSSASTKGPSVFPLAPSSKSTSGGTAALGCLVKDYFPEPVTVSWNSGALTSGVHTFPAVLQSSGLYSLSSVVTVPSSSLGTQTYICNVNHKPSNTKVDKRV[gap - human IgG1 Fc]
light: ELQMTQSPSSLSASVGDRVTITCRSSQSLLHTYGSPYLNWYLQKPGQSPKLLIYKVSNRFSGVPSRFSGSGSGTDFTLTISSLQPEDFAVYFCSQGTHLPYTFGGGTKVEIKRTVAAPSVFIFPPSDEQLKSGTASVVCLLNNFYPREAKVQWKVDNALQSGNSQESVTEQDSKDSTYSLSSTLTLSKADYEKHKVYACEVTHQGLSSPVTKSFNRGEC
chain: PIPDSSPLLQFGGQVRQRYLYTDDAQQTEAHLEIREDGTVGGAADQSPESLLQLKALKPGVIQILGVKTSRFLCQRPCGALYGSLHFDPEACSFRELLLEDGYNVYQSEAHGLPLHLPGNKSPHRDPAPRGPARFLPLPGLPPAPPEPPGILAPQPPDVGSSDPLSMVGPSQGRSPSYAS
modifications: Cys79 (numbering of SEQ ID NO:1) conjugated to linker-1 (L1); side chain of Lys99 covalently linked to linker-1 (L1)
[1]
  Glut1 Taqman Conjugate EC50: 3.7 nM

B2: Ab-L1-FGF21ΔH-H125C (other)
heavy: EVQLVESGGGLVQPGGSLRLSCAASGFTFSNYWMSWVRQSPEKGLEWVSEIRLRSDNYATHYAESVKGRFTISRDNSKNTLYLQMNSLRAEDTGIYYCKTYFYSFSYWGQGTLVTVSSASTKGPSVFPLAPSSKSTSGGTAALGCLVKDYFPEPVTVSWNSGALTSGVHTFPAVLQSSGLYSLSSVVTVPSSSLGTQTYICNVNHKPSNTKVDKRV[gap - human IgG1 Fc]
light: ELQMTQSPSSLSASVGDRVTITCRSSQSLLHTYGSPYLNWYLQKPGQSPKLLIYKVSNRFSGVPSRFSGSGSGTDFTLTISSLQPEDFAVYFCSQGTHLPYTFGGGTKVEIKRTVAAPSVFIFPPSDEQLKSGTASVVCLLNNFYPREAKVQWKVDNALQSGNSQESVTEQDSKDSTYSLSSTLTLSKADYEKHKVYACEVTHQGLSSPVTKSFNRGEC
chain: PIPDSSPLLQFGGQVRQRYLYTDDAQQTEAHLEIREDGTVGGAADQSPESLLQLKALKPGVIQILGVKTSRFLCQRPDGALYGSLHFDPEACSFRELLLEDGYNVYQSEAHGLPLHLPGNKSPCRDPAPRGPARFLPLPGLPPAPPEPPGILAPQPPDVGSSDPLSMVGPSQGRSPSYAS
modifications: Cys125 (numbering of SEQ ID NO:1) conjugated to linker-1 (L1); side chain of Lys99 covalently linked to linker-1 (L1)
[1]
  Glut1 Taqman Conjugate EC50: 3.2 nM

B3: Ab-L1-FGF21ΔH-A129C (other)
heavy: EVQLVESGGGLVQPGGSLRLSCAASGFTFSNYWMSWVRQSPEKGLEWVSEIRLRSDNYATHYAESVKGRFTISRDNSKNTLYLQMNSLRAEDTGIYYCKTYFYSFSYWGQGTLVTVSSASTKGPSVFPLAPSSKSTSGGTAALGCLVKDYFPEPVTVSWNSGALTSGVHTFPAVLQSSGLYSLSSVVTVPSSSLGTQTYICNVNHKPSNTKVDKRV[gap - human IgG1 Fc]
light: ELQMTQSPSSLSASVGDRVTITCRSSQSLLHTYGSPYLNWYLQKPGQSPKLLIYKVSNRFSGVPSRFSGSGSGTDFTLTISSLQPEDFAVYFCSQGTHLPYTFGGGTKVEIKRTVAAPSVFIFPPSDEQLKSGTASVVCLLNNFYPREAKVQWKVDNALQSGNSQESVTEQDSKDSTYSLSSTLTLSKADYEKHKVYACEVTHQGLSSPVTKSFNRGEC
chain: PIPDSSPLLQFGGQVRQRYLYTDDAQQTEAHLEIREDGTVGGAADQSPESLLQLKALKPGVIQILGVKTSRFLCQRPDGALYGSLHFDPEACSFRELLLEDGYNVYQSEAHGLPLHLPGNKSPHRDPCPRGPARFLPLPGLPPAPPEPPGILAPQPPDVGSSDPLSMVGPSQGRSPSYAS
modifications: thiol group of Cys129 (numbering of SEQ ID NO:1) covalently conjugated to linker-1 (L1); side chain of Lys99 covalently linked to linker-1 (L1)
notes: Antibody-protein conjugate: one FGF21ΔH-A129C is joined through L1 to the combining site of each arm of h38C2 IgG1; also called Ab-FGF21ΔH-A129C; Ab-(FGF21ΔH-A129C-L1)2
[2]
  Bioactivity (relative %): 61 % relative to a reference material
[3]
  Bioactivity (relative %): 107 % relative to a reference material
[4]
  Bioactivity (relative %): 49 % relative to a reference material
[5]
  Bioactivity (relative %): 98 % relative to a reference material
[1]
  Glut1 Taqman Conjugate EC50: 2.7 nM
[6]
  Bioactivity (relative %): 64 % relative to a reference material
[7]
  Bioactivity (relative %): 105 % relative to a reference material
[8]
  Bioactivity (relative %): 97 % relative to a reference material
